Test results as given in paper PMC4336329 (PLoS ONE, 2015).
In all, about 310,000 compounds went through this assay and about 2,200 (0.71%) showed an effect of 50% or more. The effect is printed as a negative number. The list shows a part of the results.

What follows are compounds tested against human ether-à-go-go-related gene (hERG) potassium channel (human, UniProt Q12809) (assay: primary screen, population patch clamp on CHO cells stably expressing hERG).
Chain of human ether-à-go-go-related gene (hERG) potassium channel (Q12809 whole entry, looked up): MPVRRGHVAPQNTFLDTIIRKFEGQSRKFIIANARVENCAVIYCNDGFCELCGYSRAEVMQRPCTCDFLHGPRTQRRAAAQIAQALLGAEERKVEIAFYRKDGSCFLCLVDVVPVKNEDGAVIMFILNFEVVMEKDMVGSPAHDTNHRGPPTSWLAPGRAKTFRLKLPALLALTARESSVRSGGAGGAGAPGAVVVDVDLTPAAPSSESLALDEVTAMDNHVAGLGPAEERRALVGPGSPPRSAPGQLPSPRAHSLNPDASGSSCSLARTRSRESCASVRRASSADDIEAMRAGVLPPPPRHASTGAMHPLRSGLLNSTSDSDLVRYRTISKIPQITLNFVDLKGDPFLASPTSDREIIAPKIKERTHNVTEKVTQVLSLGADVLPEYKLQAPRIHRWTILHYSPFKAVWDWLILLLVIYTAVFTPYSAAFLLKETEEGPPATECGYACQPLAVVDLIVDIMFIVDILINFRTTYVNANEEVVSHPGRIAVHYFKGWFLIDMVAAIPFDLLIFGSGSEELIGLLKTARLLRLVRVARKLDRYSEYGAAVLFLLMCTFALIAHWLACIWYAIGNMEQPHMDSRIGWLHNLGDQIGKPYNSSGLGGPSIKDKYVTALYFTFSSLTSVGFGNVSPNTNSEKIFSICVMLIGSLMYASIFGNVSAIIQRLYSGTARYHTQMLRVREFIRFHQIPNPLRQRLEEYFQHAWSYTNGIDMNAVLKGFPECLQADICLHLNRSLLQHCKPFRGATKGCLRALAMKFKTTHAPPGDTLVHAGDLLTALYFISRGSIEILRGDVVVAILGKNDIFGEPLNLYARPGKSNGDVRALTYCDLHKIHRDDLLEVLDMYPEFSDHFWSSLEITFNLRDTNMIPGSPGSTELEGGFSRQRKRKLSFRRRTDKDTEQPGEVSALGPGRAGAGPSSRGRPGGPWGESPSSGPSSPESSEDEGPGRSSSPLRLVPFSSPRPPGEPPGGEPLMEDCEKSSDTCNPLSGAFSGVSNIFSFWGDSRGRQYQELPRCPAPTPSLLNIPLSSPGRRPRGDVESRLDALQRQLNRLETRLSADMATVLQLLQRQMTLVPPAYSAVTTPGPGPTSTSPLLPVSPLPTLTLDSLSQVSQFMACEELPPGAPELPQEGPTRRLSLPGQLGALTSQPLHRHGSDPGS

| SMILES | hERG current change (%, negative = inhibition) at 1uM [%] |
| --- | --- |
| CNC(=O)N(O)C1N(/N=C/c2ccccc2F)C(=S)SC1(C)C (stereo not shown) | 2.8 |
| CC(/C=N/NC(=O)c1cc(-c2ccc(C)s2)[nH]n1)=C\c1ccccc1 | 6.31 |
| CCC(=NCCc1c[nH]c2ccccc12)c1c(O)n(-c2ccc(C)cc2)c(=O)[nH]c1=O | 20.4 |
| CCCNC(=O)c1ccc2c(c1)ncn2-c1cc(C)cc(C)c1 | -2.26 |
| COc1cc([N+](=O)[O-])ccc1NC(=O)C1C2C=CC(C2)C1C(=O)O (stereo not shown) | 12.1 |
| COc1ccc2c(=O)c3c(=O)n(Cc4ccco4)c(-c4ccc(C)cc4)nc3oc2c1 | -9.46 |
| CCn1cc(/C=C2\SC(=O)N(CC(=O)Nc3ccc4c(c3)OCO4)C2=O)c2ccccc21 | 1.81 |
| COc1cc(C(=O)ON=C2C(C)=CC(=O)C=C2C)cc(OC)c1OC | 4.38 |
| CCc1ccc(N=C2NC(=O)CS2)cc1 | 12.6 |
| Cn1c(N)c(C(=O)CSc2ccc3c(c2)OCCO3)c(=O)n(C)c1=O | 11.4 |
| O=C1NC(=Nc2ccccc2)SC1Cc1ccccc1 (stereo not shown) | 10.2 |
| CCOC(=O)Cc1csc(NC(=O)c2c(-c3c(Cl)cccc3Cl)noc2C)n1 | 12 |
| COP(=O)(OC)C1(O)C(=O)Nc2ccc(Br)cc21 (stereo not shown) | 11.2 |
| Cc1ccc2nc3n(c(=O)c2c1)-c1ccccc1C(=O)NC3Cc1ccccc1 (stereo not shown) | 12.8 |
| Cc1nn(Cc2ccc(F)cc2)c(C)c1NC(=O)c1noc2c1CCCCC2 | 5.05 |
| COC(=O)C(CCSC)NC(=O)c1cc2c(n(-c3ccccc3)c1=O)CCCC2=O (stereo not shown) | 7.16 |
| COc1ccccc1NC(=O)C1CC(C(C)C)OC1=O (stereo not shown) | 8.25 |
| Nc1[nH]c(=O)nc(Nc2ccccc2)c1N=O | 8.79 |
| CCCCN1C(=O)C(O)=C(C(C)=O)C1c1ccc(OC)cc1OC (stereo not shown) | 2.47 |
| CCC(C)NC(=O)CNS(=O)(=O)c1ccc(C)cc1 (stereo not shown) | 6.83 |
| O=C(COc1ncnc2cc([N+](=O)[O-])ccc12)NC(=O)NC1CCCCC1 | -9.64 |
| Cc1ccc(NC(=O)c2ccc(S(=O)(=O)NCC3CCCO3)cc2)cc1 (stereo not shown) | 5.7 |

| SMILES | hERG current change (%, negative = inhibition) at 1uM [%] |
| --- | --- |
| O=C(/C=C\Nc1ccc2c(c1)OCO2)c1ccc2c(c1)OCO2 | 19.9 |
| Cc1ccc(N/C(N)=N/c2nc(C)cc(C)n2)cc1 | -24.7 |
| CCNS(=O)(=O)c1cc(Br)ccc1OC | -4.75 |
| COc1ccc(CNC(=O)c2cc3c(=O)n4cccc(C)c4nc3n(CC3CCCO3)c2=N)cc1 (stereo not shown) | -83.8 |
| CCOc1cc(/C=N/NC(=O)C(=O)N/N=C/c2ccc(O)c(OCC)c2)ccc1O | 21.8 |
| COc1ccc(NC(=O)C2CC(=O)OC2c2ccccc2)cc1 (stereo not shown) | 5.21 |
| O=C1NC(=O)C(CCc2ccncc2)(Cc2ccc(OCc3ccccc3)cc2)C(=O)N1 | 10.6 |
| Cc1[nH]c2ccccc2c1/C=C/c1nc2ccccc2c(=O)[nH]1 | 9.22 |
| Cc1nn(C)c(=O)n1N(C)c1ncc(C(F)(F)F)cc1Cl | 9.6 |
| COc1cc(OC)cc(C(=O)NCC(=O)N2CCCCC2)c1 | 12.5 |
| NC(=O)C1CCN(c2oc(-c3ccccc3F)nc2S(=O)(=O)c2ccc(Cl)cc2)CC1 | 9.32 |
| Cc1c(N=Nc2c(O)[nH]c(=O)[nH]c2=O)c(=O)n(-c2ccccc2)n1C | 16.5 |
| CS(=O)(=O)N1CCC(Oc2ccccc2C(=O)N2CCC[C@H]2CO)CC1 | 18.3 |
| CCCCN(C)CCN1C(=O)C2C(C(=O)Nc3ccc(C)cc3)C3C=CC2(O3)C1C(=O)NC1CCCCC1 (stereo not shown) | 15.1 |
| COc1ccc(C(=O)NCCn2cc(SCC(=O)N3CCOCC3)c3ccccc32)cc1 | 9.79 |
| COC(=O)[C@H](CCSC)NC(=O)c1cccnc1SC | 14.5 |
| c1ccc2c(c1)CCc1c-2nc2ccccc2c1N1CCOCC1 | -0.957 |
| C[C@@H]1O[C@@H](O[C@H]2C[C@@H](O)[C@]3(CO)[C@H]4[C@H](O)C[C@]5(C)[C@@H](C6=CC(=O)OC6)CC[C@]5(O)[C@@H]4CC[C@]3(O)C2)[C@H](O)[C@H](O)[C@H]1O | 15.1 |
| CC(C)CCN1CCC(n2nccc2NC(=O)c2ccc3c(c2)OCO3)CC1 | 15.3 |
| CC1CCCCC1NC(=O)CNC(=S)N1CC2CC(C1)c1cccc(=O)n1C2 (stereo not shown) | 15 |
| COc1ccc(CNC(=O)C2CCCN(Cc3nc(-c4cccc(C)c4)oc3C)C2)cc1 (stereo not shown) | -19.7 |
| O=C(O)c1cccc(NS(=O)(=O)c2ccc(Cl)c(C(=O)O)c2)c1 | 21 |

| SMILES | hERG current change (%, negative = inhibition) at 1uM [%] |
| --- | --- |
| Cc1cc(O)c2c(c1)C(=O)C13C(=C2O)C(=O)[C@H]2[C@@H](O)[C@@H]1[C@H]1[C@H](O)[C@@H]3C(=O)C3=C(O)c4c(O)cc(C)cc4C(=O)C312 (stereo partly shown) | 14.5 |
| CCN(CCN(C)C)C(=O)C1CCN(S(=O)(=O)c2c(C)noc2/C=C/c2ccccc2F)CC1 | 13.5 |
| CN(Cc1ccccc1N1CCCC1)C(=O)c1cc2cc(Cl)ccc2o1 | 7.6 |
| CCCCC(=O)NS(=O)(=O)c1ccc(N=NN2CCOCC2)cc1 | 16.2 |
| Cc1ccc(-c2nnn(CC(=O)N(CC(=O)NC3CCCC3)c3ccc(F)cc3)n2)o1 | 11.7 |
| COc1cc(CNCc2ccco2)ccc1OCc1ccccc1 | 4.43 |
| COc1ccc(OC)c(NC(=O)CSc2nnc(C3CCCCC3)n2N)c1 | -0.727 |
| O=C(CNC(=O)c1ccccc1F)NCCc1ccc(Cl)cc1Cl | 7.52 |
| Cc1cc(C(=O)CN2C(=O)NC3(CCC(C)CC3)C2=O)c(C)n1C (stereo not shown) | 4.8 |
| COc1ccc(CN2CCNC(=O)C2CC(=O)NCC2CCOCC2)c(C)c1C (stereo not shown) | 7.09 |
| O=c1[nH]c2c(Br)cnc([N+](=O)[O-])c2[nH]1 | 4.75 |
| COc1ccccc1NS(=O)(=O)c1ccc(Cl)c(NC(=S)NC(=O)C2CCCC2)c1 | 3.34 |
| CCN(CC)c1ccc(NC(=O)C2CCCN(S(=O)(=O)c3cnc[nH]3)C2)c(C)c1 (stereo not shown) | 4.3 |
| Cc1ccc(C(C(=O)NC2CCCC2)N(Cc2ccc3c(c2)OCO3)C(=O)c2snc(C(N)=O)c2N)cc1 (stereo not shown) | 11.7 |
| COc1cc(CCC(=O)NC2(C)CCS(=O)(=O)C2)cc(OC)c1OC (stereo not shown) | -2 |
| CCOCCCn1c(SCC(=O)Nc2cccc(S(=O)(=O)NC3=NCCCCC3)c2)nc2ccccc2c1=O | -3.2 |
| CC(=O)Nc1ccccc1/C=C/c1ccc2c(C)ccc(O)c2n1 | 12.2 |
| Fc1cnc(N2CCN(c3ccccc3)CC2)nc1N1CCN(c2ccccc2)CC1 | -11.2 |
| O=C1c2ccccc2C2NC(=O)C3(CCCCC3)N12 (stereo not shown) | 8.37 |
| Cc1ccc(NC(=O)CCC(=O)Nc2ccc(C)cc2)cc1 | 15.4 |
| CCOc1ccc(C(C)C)cc1S(=O)(=O)n1nc(C)cc1C | 12.7 |
| Oc1ccccc1CNc1nc2ccccc2n1CCN1CCCCC1 | 4.76 |

| SMILES | hERG current change (%, negative = inhibition) at 1uM [%] |
| --- | --- |
| Cc1ccc(S(=O)(=O)/N=C(\CSC(N)=O)Nc2ccccc2)cc1 | 13.7 |
| O=C(Nc1ccccc1C(F)(F)F)c1c(F)cccc1Cl | 6.5 |
| CCOc1ccc(Nc2nc(N)nc(CSC(=S)N3CCN(c4ccccc4)CC3)n2)cc1 | 12 |
| CCCCCC(=O)N(Cc1ccccc1)c1c(N)n(CCOC)c(=O)[nH]c1=O | 15.2 |
| CCCn1c(SCc2ccc(C(=O)OC)o2)nc2ccccc2c1=O | -0.262 |
| CCc1cc(Br)ccc1NC(=O)C1CCCO1 (stereo not shown) | -7.42 |
| COc1ccccc1N1C(=NC(=O)CCc2ccccc2)SC2CS(=O)(=O)CC21 (stereo not shown) | 9.33 |
| O=C(Nc1ccc(S(=O)(=O)Nc2ccccn2)cc1)c1ccc(Cl)cc1Cl | 13.4 |
| Cc1ccc(CS(=O)Cc2ccc(C(=O)N3CCN(c4ccc(F)cc4)CC3)o2)cc1 (stereo not shown) | -4.85 |
| CC(=NCc1ccccc1)C1=C(O)COC1=O | 7.04 |
| CCCN1CCN(CCCNC(=O)c2cc3c(=O)[nH]c4ccc(C)cc4c3s2)CC1 | -18.8 |
| O=C(NCCCN=C1NS(=O)(=O)c2ccccc21)c1ccccc1Cl | 11 |
| COc1ccc(C/C(C)=N\NC(=O)c2cn(C)c3ccccc23)cc1OC | 15.5 |
| COc1ccccc1NC(=O)Cn1nnc(C(=O)NCc2cccs2)c1N | 5.64 |
| CCn1c(CNC(=O)c2ccccc2F)nnc1SCCOc1ccccc1 | -2.89 |
| O=C(O)c1cc(-c2ccccc2)nn1CC1CC(c2cccnc2)=NO1 (stereo not shown) | 8.49 |
| Cc1ccc(NC(=O)Nc2cccc3ccccc23)cc1 | 15 |
| COc1ccccc1CNC(=O)COC(=O)CSc1ccc(Cl)cc1 | -1.4 |
| CC(C)COc1ccc(C(=O)Nc2ccc(NC(=O)c3ccco3)cc2)cc1 | 13.1 |
